# Test results taken from PubChem BioAssay AID624296 (National Center for Advancing Translational Sciences (NCATS), 2012).
# Several values for one entry are separate records, joined by “and”; a condition that tells them apart may be missing. Identical values can stand only once. About 9,900 (2.8%) of roughly 350,000 compounds were called active. The inconclusive results got no clear call from the source; some entries with a clear call stand among them for comparison. Calls follow the shape of the dose curve; as a rule, active = well fitted activation curve with a large enough effect; inconclusive = small, poorly fitted or top-dose-only effect; inactive = no such curve, though single readings can be large or run the other way. Potencies of inconclusive entries are doubtful fits and often do not repeat.
# Test: A quantitative high throughput screen for small molecules that induce DNA re-replication in MCF 10a normal breast cells. Also: nearly all actives have a fitted effect of over 50% in size.
# Conditions: MCF 10A DNA re-replication, Hoechst nuclear intensity, 48 h; series mostly up to 46.1 µM
# Potency is read from the fitted curve at half-maximal effect; tags tell the direction and shape of the fitted curve.
row,SMILES,Potency
1,CN1CCc2nc(SCc3ccccc3Br)c(C#N)cc2C1,"inconclusive: 18.4 µM [activator, single point]"
2,CC(=NCc1ccc(F)cc1)c1c(O)n(C)c(=O)n(C)c1=O,"inconclusive: 13 µM [activator, partial curve, poor fit]"
3,FC(F)(F)c1ccc2c(c1)NP(=S)(N1CCOCC1)c1nccn1-2 (stereo not given),"inconclusive: 9.2 µM [activator, partial curve, poor fit]"
4,C[C@]12CCC3C(CCC4=CC(O)CC[C@@]43/C=N/O)C1(O)CCC2C1=CC(=O)OC1 (stereo not given in full),"inconclusive: 0.92 µM [activator, full curve, poor fit]"
5,CC12C=CC(=O)CC1CCC1C2CCC2(C)C(O)C(O)CC12 (stereo not given),"inconclusive: 14.6 µM [activator, partial curve, poor fit]"
6,CN1C2CCC1CC(OC(=O)c1ccc([N+](=O)[O-])cc1)C2 (stereo not given),"inconclusive: 13 µM [activator, partial curve]"
7,Cc1[nH]c2ccc(OC(F)(F)F)cc2c1CCNCc1cccc([N+](=O)[O-])c1,"inconclusive: 23.1 µM [activator, single point]"
8,Cn1c(O)c(/C=N/NC(=O)c2ccncc2)c(=O)n(C)c1=S,active: 9.2 µM
9,C[C@]12CC[C@H](O)C[C@H]1CC[C@@H]1[C@@H]2CC[C@]2(C)[C@@H](C3=CC(=O)OC3)CC[C@]12O,"inconclusive: 0.164 µM [activator, full curve]"
10,Cc1ccc2c(c1)c(C1=c3ccccc3=NC1=O)c(O)n2C,"inconclusive: 29.1 µM [activator, single point]"
11,Cc1ccc(-c2cc(C(F)F)n3ncc(C(=O)N4CCc5ccccc5C4)c3n2)cc1,"inconclusive: 29.1 µM [activator, single point]"
12,Cc1nn(Cc2ccccc2)c(C)c1C(=O)OCC(=O)Nc1ccccc1SCC#N,inactive
13,O=C(/C=C/C=C/c1ccccc1)CC1(O)C(=O)Nc2ccccc21 (stereo not given),"inconclusive: 23.1 µM [activator, single point]"
14,O=P(OC1CCCCC1)(OC1CCCCC1)C(O)c1c(Cl)cccc1Cl (stereo not given),"inconclusive: 20.6 µM [activator, single point]"
15,Cc1ccc(C)c(N)c1,"inconclusive: 1.16 µM [activator, full curve, poor fit]"
16,COC1=C(OC)[C@]23CCc4ccc(OC)c(OC)c4[C@]2(CCN3C)CC1=O,"inconclusive: 29.1 µM [activator, single point]"
17,CCOC(=O)C1C(=O)NC2(C)CC1c1cc(OC)ccc1O2 (stereo not given),"inconclusive: 11.6 µM [activator, partial curve, poor fit]"
18,COc1ccc(C2=NCC(=O)N(CC(=O)NCc3ccco3)c3sc4c(c32)CCCC4)cc1,inactive
19,Cc1ccc(C)c(NP(=O)(Oc2ccccc2)Oc2ccccc2)c1,active: 20.6 µM
20,CCc1cc2c(s1)NC(=O)CN=C2c1cccs1,"inconclusive: 18.4 µM [activator, single point]"

row,SMILES,Potency
1,CCC(C)NC(=O)c1c(N)n(CCCOC)c2nc3ccccc3nc12 (stereo not given),active: 4.11 µM
2,CC12CCC3c4ccc(OP(=O)(N5CC5)N5CC5)cc4CCC3C1CCC2=O (stereo not given),"inconclusive: 20.6 µM [activator, single point]"
3,Cc1ccc(O)c([C@H](CCN(C(C)C)C(C)C)c2ccccc2)c1,"inconclusive: 820 nM [activator, full curve, poor fit] and inconclusive: 1.84 µM [activator, partial curve, poor fit]"
4,Cc1cccc(OCC(=O)N2CCN(Cc3ccncc3)CC2)c1,inactive
5,c1ccc2c(CN3CCCCCCC3)c[nH]c2c1,inactive
6,CCOC(=O)c1c(C)n(Cc2ccccc2)c2ccc(OCC(O)CNC(C)(C)C)cc12 (stereo not given),"inconclusive: 16.4 µM [activator, partial curve]"
7,NC(=O)CSc1nnc([C@@H](N)Cc2c[nH]c3ccccc23)o1,inactive
8,Clc1ccc(COC(Cn2ccnc2)c2ccc(Cl)cc2Cl)cc1 (stereo not given),"inactive and inconclusive: 29.9 µM [activator, single point] and inconclusive: 25.9 µM [activator, single point]"
9,COc1ccc2c(c1OC)C(=O)OC2C1c2cc3c(cc2CCN1C)OCO3 (stereo not given),"inactive and inconclusive: 5.8 µM [activator, single point]"
10,C=CCn1c(O)c(C(C)=Nc2ccc(C(=O)O)cc2)c(=O)[nH]c1=O,inactive
11,COc1ccc(C(=O)N/N=C/C23CC[C@@H](O)CC2(O)CC[C@@H]2[C@@H]3CCC3(C)C(C4=CC(=O)OC4)CCC23O)cc1 (stereo not given in full),"inconclusive: 11.6 µM [activator, partial curve, poor fit]"
12,CN(C)C=C1C(=O)N(C2CCCCC2)C(=O)N(C2CCCCC2)C1=O,"inconclusive: 29.1 µM [activator, single point]"
13,CN(C)c1ccc(N=Cc2c(O)n(CCC3=CCCCC3)c(=O)[nH]c2=O)cc1,"inconclusive: 0.184 µM [activator, full curve, poor fit]"
14,Cc1c(CC(=O)N2C[C@H]3C[C@@H](C2)c2cccc(=O)n2C3)c(=O)oc2c(C)c(O)ccc12,inactive
15,COC(=O)c1ccc(NC(=O)CSc2nc3ccc(N4C(=O)C5C6C=CC(C6)C5C4=O)cc3s2)cc1 (stereo not given),"inconclusive: 18.4 µM [activator, single point]"
16,C#CCN(C)[C@@H](C)Cc1ccccc1,inactive
17,C[C@H]1CCCC(=O)CCCCCc2cc(O)cc(O)c2C(=O)O1,"inconclusive: 4.61 µM [activator, single point] and inconclusive: 25.9 µM [activator, single point]"
18,O=C(c1cc(-c2ccc(Cl)cc2)n(-c2ccc(Cl)cc2Cl)n1)N1CCOCC1,"inconclusive: 29.1 µM [activator, single point]"
19,COc1ccccc1CCNCc1ccc(OC)c(OC)c1OC,inactive
20,CC(C)(C)c1cc(OC(=O)Cc2ccccc2)ccc1O,"inconclusive: 23.1 µM [activator, single point]"
